Here are results for 86 sequences from the supplement of paper PMC3334620.

In all, about 33,000 sequences were measured (“E-score (-0.5 to 0.5)”: median about -0.013, highest 2% from about 0.3 on). Some of the results follow.

The target in the test is T1, Msn1 (UniProt P22148).
T1 sequence: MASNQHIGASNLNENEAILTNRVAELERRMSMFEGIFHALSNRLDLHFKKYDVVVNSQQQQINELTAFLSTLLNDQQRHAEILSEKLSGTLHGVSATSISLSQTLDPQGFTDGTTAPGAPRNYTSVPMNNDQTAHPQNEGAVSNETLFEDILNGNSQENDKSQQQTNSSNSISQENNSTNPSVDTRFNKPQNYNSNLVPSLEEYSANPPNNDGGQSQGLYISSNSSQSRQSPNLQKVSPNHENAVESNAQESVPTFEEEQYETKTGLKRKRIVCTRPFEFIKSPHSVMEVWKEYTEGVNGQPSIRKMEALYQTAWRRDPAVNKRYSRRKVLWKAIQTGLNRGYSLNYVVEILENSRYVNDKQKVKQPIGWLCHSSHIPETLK
The experiment in a line: PBM E-score (8-mer binding enrichment) (E-score (-0.5 to 0.5)); higher = stronger / more preferred TF binding; most listed sequences are background and not binding sites. The settings on record: protein concentration: 200 nM; construct: GST-full length. A digest of the protocol:
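The E-score, a modified Wilcoxon-Mann-Whitney statistic, was computed by the Universal PBM Analysis Suite for every ungapped eight-base word pooled with its reverse complement. Scans behind it were normalised with masliner after bound GST-tagged yeast transcription factors were detected with fluorescent anti-GST. The proteins, at about 100-200 nM, had been applied to universal all-10-mer Agilent arrays made double-stranded by primer extension.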
As to AAGGTAAT, the “PBM E-score” value is 0.0993.

For CGAGGGAC, the “PBM E-score” value is -0.00744.

With AACTGGCG, the “PBM E-score” value is -0.122.

On to AATGCCGC, for which the “PBM E-score” value turned out to be 0.0604.

For CGGCACCG, the “PBM E-score” value is -0.0171.

As to GAACAACC, the “PBM E-score” value turned out to be 0.11.

As for CACGACTC, the “PBM E-score” value turned out to be 0.0981.

For CAAACTTG, the “PBM E-score” value worked out at 0.0455.

Turning to CAATGCTC, the “PBM E-score” value is -0.145.

As for ATTGTAAG, the “PBM E-score” value is -0.187.

Take AAGTCCCC: the “PBM E-score” value stood at 0.0292.

For the sequence CATAGTAG, the “PBM E-score” value is 0.0607.

Consider CTATGAGC, for which the “PBM E-score” value is -0.19.

For the sequence TAGCTAGA, the “PBM E-score” value stood at 0.0429.

In the case of AAGTACGG, the “PBM E-score” value was found to be 0.0556.

Consider AACCCGGG, for which the “PBM E-score” value is -0.0877.

Turning to GAGGGTGA, the “PBM E-score” value was -0.104.

Regarding GACGTTGC, the “PBM E-score” value was -0.0501.

Regarding ATATCATA, the “PBM E-score” value was found to be 0.216.

Regarding ATATGCGC, the “PBM E-score” value was -0.129.

For the sequence ATGAGGCA, the “PBM E-score” value was -0.288.

CTTATAGC: the “PBM E-score” value amounted to 0.142.

For CATCCAAC, the “PBM E-score” value was -0.00221.

As for AGGTACCC, the “PBM E-score” value is -0.12.

With GCAGTCGC, the “PBM E-score” value is -0.133.

Consider GGCCGTGA, for which the “PBM E-score” value is -0.00697.

ATAGGGGA: the “PBM E-score” value was -0.126.

On to AGTATGAA, for which the “PBM E-score” value stood at 0.0712.

Regarding AGTTTGAG, the “PBM E-score” value was -0.0492.

For ACTAAGCT, the “PBM E-score” value was 0.0437.

Regarding CACCACCG, the “PBM E-score” value was -0.208.

As to AGACTGCC, the “PBM E-score” value was -0.0572.

For AGCCAGTC, the “PBM E-score” value is -0.293.

On to CCGTGGGC, for which the “PBM E-score” value was -0.129.

With AGAAGCGG, the “PBM E-score” value was -0.101.

For ACTCGGAC, the “PBM E-score” value turned out to be 0.281.

For the sequence ATGACGAA, the “PBM E-score” value stood at 0.0573.

Consider CTACCAGC, for which the “PBM E-score” value was -0.164.

As for ACTACAGG, the “PBM E-score” value was determined as 0.094.

CAGAGGGC: the “PBM E-score” value is -0.21.

GAAGCTCA: the “PBM E-score” value is -0.00485.

CGCCTCCC: the “PBM E-score” value is -0.4.

In the case of AAAACGGG, the “PBM E-score” value worked out at 0.145.

AGGCAGCC: the “PBM E-score” value is -0.197.

With AATTGGGG, the “PBM E-score” value was -0.0385.

AACCCGTT: the “PBM E-score” value is -0.0539.

As for GCTCAGAC, the “PBM E-score” value is -0.082.

Take ACTCGAGT: the “PBM E-score” value came to 0.14.

CACCCAGC: the “PBM E-score” value was -0.264.

With AGAATGAA, the “PBM E-score” value came out at 0.0547.

For TAGTTGGA, the “PBM E-score” value is 0.072.

With AGACGGTA, the “PBM E-score” value is -0.0408.

As to TCGGCTAA, the “PBM E-score” value is 0.116.

Take CCACCGAC: the “PBM E-score” value is -0.245.

As for AATCCTGC, the “PBM E-score” value was -0.0314.

On to AAAGAGAT, for which the “PBM E-score” value was -0.0658.

Regarding TACAGATA, the “PBM E-score” value came to 0.155.

As for ACACGGTA, the “PBM E-score” value was -0.0076.

ACAACGGT: the “PBM E-score” value was 0.00073.

As for TAGCTGCA, the “PBM E-score” value was -0.245.

Take ATATGGGC: the “PBM E-score” value was 0.0311.

Take AAACGATG: the “PBM E-score” value came to 0.0779.

For GAAAAGGC, the “PBM E-score” value was -0.0462.

As for ATATGCCA, the “PBM E-score” value worked out at 0.0519.

In the case of AACCCGGT, the “PBM E-score” value was -0.217.

Regarding TACACCGA, the “PBM E-score” value was found to be 0.162.

Consider TCAACAAA, for which the “PBM E-score” value stood at 0.113.

As for GTGCCTGA, the “PBM E-score” value is -0.25.

With AACACATA, the “PBM E-score” value amounted to 0.071.

With GAAGAGCA, the “PBM E-score” value was -0.243.

As to ACGCGCAC, the “PBM E-score” value is -0.025.

Consider CTTGCTTA, for which the “PBM E-score” value was -0.00126.

With CAAGAGCA, the “PBM E-score” value was -0.164.

Consider ATCCACCA, for which the “PBM E-score” value is -0.148.

As for CCACGCAA, the “PBM E-score” value is -0.0256.

Regarding AATGTTCC, the “PBM E-score” value was 0.176.

As to CCCGTCGG, the “PBM E-score” value is -0.194.

For the sequence GTTCACTA, the “PBM E-score” value came to 0.0987.

For the sequence CAATTGCG, the “PBM E-score” value was -0.00651.

Consider GCCCCAAC, for which the “PBM E-score” value is -0.042.

For the sequence AGGTCATC, the “PBM E-score” value was found to be 0.0226.

For the sequence CCCCTATC, the “PBM E-score” value was -0.243.

For GAAGAGCC, the “PBM E-score” value was -0.0467.

As for AGTCCGTA, the “PBM E-score” value worked out at 0.208.

With ATATAGTG, the “PBM E-score” value came out at 0.198.

Take ACTCGCAC: the “PBM E-score” value was -0.0502.
